Assay results as given in the supplement of paper PMC11417369.
± gives the standard deviation of the averaged measurements. The list shows a part of the results.

test system: PfAP2-LT AP2 domain (GST-tagged); assay: gcPBM binding intensity (ln(normalized median fluorescence intensity)); higher = stronger DNA binding
Summary of the method: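 An Agilent 4 × 180k array of primer-extended double-stranded 36-bp intergenic genomic probes, with negative controls, was incubated for 1 h with GST-tagged P. falciparum DNA-binding domains expressed in E. coli. Alexa488 anti-GST antibody detected bound protein, scanned at 488 nm. Binding intensity is the highest Masliner-normalised natural-log median intensity across replicate spots of either probe orientation.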

Sequence | gcPBM binding intensity (ln)
TATAATAATATTTATTGTACAATTAGTTTAATTCAT [XGTACX_site272] | 8.69 ± 0.45
ACAGCCAATACGGAAACACACAAGTTATTTTATCAT [CACACA_site5507] | 9.04 ± 0.49
TATATGCCTATAAGAAGTACTGTGTAATGTAATATA [XGTACX_site8089] | 8.8 ± 0.53
AAGAAAAATATATTTATATATATATATATTAAATAT [TGCATGCA_negctrl_site500] | 8.6 ± 0.35
TAAACATAAATATGCACACATATACATATATTCATA [CACACA_site2667] | 8.98 ± 0.38
CTACATAATAAAAAAAGTACATTCTAATAAATTGAC [XGTACX_site4504] | 8.71 ± 0.54
ACTAATAATTTGTCGGTGCATAAAATTATTTTTATT [GTGCAC_site9840] | 8.73 ± 0.36
AAATTATGCATCGAGGTGCGTCTTAAAATATAGTGG | 8.9 ± 0.3
ATATAAATTCAAATTACACACATTTATTTTTTTTAC [CACACA_site53] | 8.88 ± 0.49
ATGATAAAATTATGTAGTACATATTTGAATGTAAAT [XGTACX_site688] | 8.97 ± 0.43
ATATATGTAACATATTGTACATATATGTATGTATGT [XGTACX_site3281] | 9.13 ± 0.46
ATTCATAAAAGTTGTACATGCAATTTTTTTTTTTTT [TGCATGCA_site270] | 8.58 ± 0.42
ATTTTGTTATGAAACACACACATATATATATATATA [CACACA_site3650] | 9.67 ± 0.31
TAATTTCTTATGTAGTGTACAAATAATATATGATAT [XGTACX_site597] | 8.61 ± 0.32
TAATCGGTAATATTAACACACACATTTATATATATT [CACACA_site8274] | 9.28 ± 0.31
AATATCTGTATATCCACACACATATATATATATATA [CACACA_site4987] | 9.73 ± 0.11
ATTATTCATATAACACGTACAAAACGAAAAACAAAT [XGTACX_site3873] | 8.97 ± 0.35
GTATTAATAAAAATACGTACTTATTATTTATAATAA [XGTACX_site7672] | 8.38 ± 0.48
AATATCACCACATTGTTACTATAATATATAAAAAAG [XGTACX_negctrl_site384] | 8.62 ± 0.41

Sequence | gcPBM binding intensity (ln)
AAAAGGAGAAATATTGCACACGTGCAAAATGGTATG [CACACA_site4300] | 9.2 ± 0.42
TTTACTCCTACAACATGTACATAAAATAAATTTTTT [XGTACX_site5010] | 8.55 ± 0.41
ACATGTTAACTAAATGTACACACCTATGTTGATGTA [CACACA_site1821] | 9.15 ± 0.24
TTATTTACAACTTTTTTTTTTTTATTTTATTTTATT [CACACA_negctrl_site341] | 8.56 ± 0.52
GAAATGTGGTAATATACACACACGCATATATTTATA [CACACA_site6285] | 9.29 ± 0.3
TTTGAACTCTTAAGTGGTACAAATTTGTATTTTCTC [XGTACX_site2322] | 8.78 ± 0.34
ACATAGCAATGTTTCACACACAAGAAAAAATACAAT [CACACA_site2379] | 9.33 ± 0.47
AATGGAATATATATTTGTACATAAATATTATAATAA [XGTACX_site8524] | 8.7 ± 0.42
TATAAATAAAAATATACACACTGTATTATTGTAATA [CACACA_site7721] | 8.74 ± 0.44
TATTATTATTATTACACACACAATTATATTTACCCC [CACACA_site503] | 9.45 ± 0.36
TCGTGGTTTTAATAAGTGCGCAATTTAAATATTTTT | 8.96 ± 0.38
GTATATATATATATATATATATATTTTTATTTATTT [CACACA_negctrl_site589] | 9.21 ± 0.19
AATATAAGTAGTACAGTGCATATAATAATTAGAAGA [GTGCAC_site9485] | 9.06 ± 0.46
CCATAAAAAGGATACACACACACACGCACATATATA [CACACA_site6550] | 9.92 ± 0.11
TTGATTTATATTTAATGTACATTTTTACAGAAAATT [XGTACX_site2747] | 8.45 ± 0.49
GATTAAACACAAAGAAGTACGGACATAAAAAAAAAA [XGTACX_site3686] | 8.88 ± 0.56
TAAAAATATTAATAAACACACAATGAGATATTGAAT [CACACA_site3153] | 8.82 ± 0.39
ATATATATATTATATGCACACGTTAAAATTTCATAT [CACACA_site4552] | 8.98 ± 0.28
TATTATAATATTTATACACACATAATTTTGATAAAT [CACACA_site583] | 8.68 ± 0.4

Sequence | gcPBM binding intensity (ln)
TGATATATTTATATTACACACTTAAACGAAAAAAAA [CACACA_site3021] | 8.59 ± 0.37
AAATATAAAATTTATTGTACATTATATATAATATAT [XGTACX_site1416] | 8.54 ± 0.38
ATATTATATATATAGGTGCGAGTATTTTATAAATAT [GTGCAC_site9889] | 8.76 ± 0.31
TATACACCCGGACACACACACATATATATATATATA [CACACA_site5030] | 10.36 ± 0.028
TAAGTATACACATACACACACACACTAATAAAAAAA [CACACA_site8035] | 10 ± 0.26
TTCTTCTGTTTTATTACACACCATTTTGCGTATACA [CACACA_site2070] | 9.28 ± 0.38
ACATATTATATAACTCGTACTCGTAAAATATGTTGT [XGTACX_site2240] | 9.07 ± 0.3
GTCATAAATGTACGCACACATACATAAACATATACA [CACACA_site650] | 9.26 ± 0.31
GTTCTTTTATATATTTGTACATATTTATATATATTG [XGTACX_site4078] | 9.08 ± 0.52
CATTCTTGTTTAAAAAGTACATAAACATATATATAT [XGTACX_site1751] | 8.53 ± 0.37
AAAAAAAATAAAGAGAAAAAAAAAAGAAAATTATAT [GTGCAC_negctrl_site550] | 8.46 ± 0.47
TAAATTAATATGTATCGTACAATATATAAAACGATG [XGTACX_site2818] | 8.74 ± 0.38
ATTTAAATAAGATATACACACAAGTAGAAGACTATG [CACACA_site806] | 9.04 ± 0.38
TTTTCGATGTTGGTAGGAAGTTTGGTACACGTAGTA [TGCATGCA_negctrl_site145] | 8.63 ± 0.45
CGTATTTATAGAATTACACACCATATTGTAATTATT [CACACA_site7722] | 8.82 ± 0.38
TTTTTTTTGTAATACGCATGCTAAAAATATTTATAA [TGCATGCA_site656] | 8.45 ± 0.45
GTGTTTTTATTATTTTGTACACATATATTTAATATT [XGTACX_site2109] | 9.17 ± 0.49
TTGTCCCTATAAGGGGAACACACATAAATGAATATA [CACACA_site8250] | 8.7 ± 0.49
ATAATGTTTTATAATACACACATTATGTATATAAAT [CACACA_site4077] | 8.94 ± 0.41
